From US20240076343A1
Values belong to the binder of their own block, whether it stands above or below them.

Key:
[1] = molecular target: high-affinity hIL-2 receptor (IL-2Rαβγ) (human) (UniProt P01589); assay: cell-based or functional assay
[2] = molecular target: intermediate affinity hIL-2 receptor complex (IL-2Rβγ) (human) (UniProt P14784); assay: cell-based or functional assay
Sequence of UniProt P14784 (P14784 27-551, chain 1 of 2): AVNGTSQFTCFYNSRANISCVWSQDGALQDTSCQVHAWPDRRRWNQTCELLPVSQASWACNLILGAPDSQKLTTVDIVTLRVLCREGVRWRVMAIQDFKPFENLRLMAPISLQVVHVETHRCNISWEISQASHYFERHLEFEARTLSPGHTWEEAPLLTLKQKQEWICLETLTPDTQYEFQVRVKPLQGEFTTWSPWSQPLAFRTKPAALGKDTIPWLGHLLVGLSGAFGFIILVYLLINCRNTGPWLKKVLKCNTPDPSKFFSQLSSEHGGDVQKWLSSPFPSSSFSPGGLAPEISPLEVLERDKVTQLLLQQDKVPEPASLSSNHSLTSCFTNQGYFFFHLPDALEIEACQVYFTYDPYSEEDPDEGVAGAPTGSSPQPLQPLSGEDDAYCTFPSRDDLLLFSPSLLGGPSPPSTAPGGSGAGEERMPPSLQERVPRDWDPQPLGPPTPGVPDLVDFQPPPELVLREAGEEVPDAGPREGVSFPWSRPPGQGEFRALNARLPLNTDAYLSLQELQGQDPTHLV
Sequence of UniProt P14784 (chain, as listed by the source, chain 2 of 2): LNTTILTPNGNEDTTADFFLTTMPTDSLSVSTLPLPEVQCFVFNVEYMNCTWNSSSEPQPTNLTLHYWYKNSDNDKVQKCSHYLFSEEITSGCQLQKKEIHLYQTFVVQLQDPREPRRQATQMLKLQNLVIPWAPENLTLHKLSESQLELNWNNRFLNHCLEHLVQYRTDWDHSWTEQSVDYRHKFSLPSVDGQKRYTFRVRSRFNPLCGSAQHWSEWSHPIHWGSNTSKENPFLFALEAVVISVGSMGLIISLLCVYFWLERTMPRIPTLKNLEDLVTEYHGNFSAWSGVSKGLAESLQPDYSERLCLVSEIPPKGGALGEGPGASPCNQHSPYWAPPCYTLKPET

Sequence of UniProt P01589 (P01589 22-272, chain 1 of 3): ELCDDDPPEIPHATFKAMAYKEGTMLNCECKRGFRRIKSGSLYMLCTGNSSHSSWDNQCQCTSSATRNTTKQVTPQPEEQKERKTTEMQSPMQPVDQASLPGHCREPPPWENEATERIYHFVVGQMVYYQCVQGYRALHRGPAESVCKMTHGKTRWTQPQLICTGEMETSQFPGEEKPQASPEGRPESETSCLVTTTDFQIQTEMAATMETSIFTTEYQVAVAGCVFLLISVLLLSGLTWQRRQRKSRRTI
Sequence of UniProt P01589 (chain, as listed by the source, chain 2 of 3): as the sequence (P14784 27-551, chain 1 of 2) above
Sequence of UniProt P01589 (chain, as listed by the source, chain 3 of 3): as the sequence (chain, as listed by the source, chain 2 of 2) above

- Fold change from hIL-2 (NK-92), pSTAT5 fixed conc. [1]: 7 fold
- Fold change from hIL-2 (TF1 + IL-2Rβ), pSTAT5 fixed conc. [2]: 3 fold
B1: 1H3-hIgG1-L6-hIL-2 (I92D/Y45H) (protein)
heavy: EVQLVESGGGLVQPGRSLKLSCAVSGFTFSDYAMAWVRQAPKKGLEWVATISYDGSRTYYRDSVKGRFTISRDNAKITLYLQMDSLRSEDTATYYCARHGSGYFDYWGQGVMVTVSS[not shown - about 450 residues with a human IgG1 Fc and changes]
light: DTVLTQSPALAVSPGERVTISCRASESVRTGVHWYQQKPGQQPKLLIYGASNLESGVPARFSGSGSGTDFTLTIDPVEADDTATYFCQQSWNDPFTFGSGTKLEIKRTVAAPSVFIFPPSDEQLKSGTASVVCLLNNFYPREAKVQWKVDNALQSGNSQESVTEQDSKDSTYSLSSTLTLSKADYEKHKVYACEVTHQGLSSPVTKSFNRGEC

- Fold change from hIL-2 (NK-92), pSTAT5 fixed conc. [1]: 28 fold
- Fold change from hIL-2 (TF1 + IL-2Rβ), pSTAT5 fixed conc. [2]: 5 fold
B2: 1H3-hIgG1-L6-hIL-2 (I92D/F42M) (protein)
heavy: EVQLVESGGGLVQPGRSLKLSCAVSGFTFSDYAMAWVRQAPKKGLEWVATISYDGSRTYYRDSVKGRFTISRDNAKITLYLQMDSLRSEDTATYYCARHGSGYFDYWGQGVMVTVSS[not shown - about 450 residues with a human IgG1 Fc and changes]
light: B1 light

- Fold change from hIL-2 (NK-92), pSTAT5 fixed conc. [1]: 27 fold
- Fold change from hIL-2 (TF1 + IL-2Rβ), pSTAT5 fixed conc. [2]: 4 fold
B3: 1H3-hIgG1-L6-hIL-2 (I92D/Y45E) (protein)
heavy: EVQLVESGGGLVQPGRSLKLSCAVSGFTFSDYAMAWVRQAPKKGLEWVATISYDGSRTYYRDSVKGRFTISRDNAKITLYLQMDSLRSEDTATYYCARHGSGYFDYWGQGVMVTVSS[not shown - about 450 residues with a human IgG1 Fc and changes]
light: B1 light

- Fold change from hIL-2 (NK-92), pSTAT5 fixed conc. [1]: 27 fold
- Fold change from hIL-2 (TF1 + IL-2Rβ), pSTAT5 fixed conc. [2]: 4 fold
B4: 1H3-hIgG1-L6-hIL-2 (I92D/Y45W) (protein)
heavy: EVQLVESGGGLVQPGRSLKLSCAVSGFTFSDYAMAWVRQAPKKGLEWVATISYDGSRTYYRDSVKGRFTISRDNAKITLYLQMDSLRSEDTATYYCARHGSGYFDYWGQGVMVTVSS[not shown - about 450 residues with a human IgG1 Fc and changes]
light: B1 light

- Fold change from hIL-2 (NK-92), pSTAT5 fixed conc. [1]: 21 fold
- Fold change from hIL-2 (TF1 + IL-2Rβ), pSTAT5 fixed conc. [2]: 3 fold
B5: 1H3-hIgG1-L6-hIL-2 (D20A/Y45V) (protein)
heavy: EVQLVESGGGLVQPGRSLKLSCAVSGFTFSDYAMAWVRQAPKKGLEWVATISYDGSRTYYRDSVKGRFTISRDNAKITLYLQMDSLRSEDTATYYCARHGSGYFDYWGQGVMVTVSS[not shown - about 450 residues with a human IgG1 Fc and changes]
light: B1 light

- Fold change from hIL-2 (NK-92), pSTAT5 fixed conc. [1]: 20 fold
- Fold change from hIL-2 (TF1 + IL-2Rβ), pSTAT5 fixed conc. [2]: 1 fold
B6: 1H3-hIgG1-L6-hIL-2 (R38E/D84T) (protein)
heavy: EVQLVESGGGLVQPGRSLKLSCAVSGFTFSDYAMAWVRQAPKKGLEWVATISYDGSRTYYRDSVKGRFTISRDNAKITLYLQMDSLRSEDTATYYCARHGSGYFDYWGQGVMVTVSS[not shown - about 450 residues with a human IgG1 Fc and changes]
light: B1 light

- Fold change from hIL-2 (NK-92), pSTAT5 fixed conc. [1]: 18 fold
- Fold change from hIL-2 (TF1 + IL-2Rβ), pSTAT5 fixed conc. [2]: 1 fold
B7: 1H3-hIgG1-L6-hIL-2 (R38E/D84A) (protein)
heavy: EVQLVESGGGLVQPGRSLKLSCAVSGFTFSDYAMAWVRQAPKKGLEWVATISYDGSRTYYRDSVKGRFTISRDNAKITLYLQMDSLRSEDTATYYCARHGSGYFDYWGQGVMVTVSS[not shown - about 450 residues with a human IgG1 Fc and changes]
light: B1 light

- Fold change from hIL-2 (NK-92), pSTAT5 fixed conc. [1]: 29 fold
- Fold change from hIL-2 (TF1 + IL-2Rβ), pSTAT5 fixed conc. [2]: 5 fold
B8: 1H3-hIgG1-L6-hIL-2 (I92D/F42N) (protein)
heavy: EVQLVESGGGLVQPGRSLKLSCAVSGFTFSDYAMAWVRQAPKKGLEWVATISYDGSRTYYRDSVKGRFTISRDNAKITLYLQMDSLRSEDTATYYCARHGSGYFDYWGQGVMVTVSS[not shown - about 450 residues with a human IgG1 Fc and changes]
light: B1 light

- Fold change from hIL-2 (NK-92), pSTAT5 fixed conc. [1]: 19 fold
- Fold change from hIL-2 (TF1 + IL-2Rβ), pSTAT5 fixed conc. [2]: 2 fold
B9: 1H3-hIgG1-L6-hIL-2 (R38E/D84H) (protein)
heavy: EVQLVESGGGLVQPGRSLKLSCAVSGFTFSDYAMAWVRQAPKKGLEWVATISYDGSRTYYRDSVKGRFTISRDNAKITLYLQMDSLRSEDTATYYCARHGSGYFDYWGQGVMVTVSS[not shown - about 450 residues with a human IgG1 Fc and changes]
light: B1 light

- Fold change from hIL-2 (NK-92), pSTAT5 fixed conc. [1]: 18 fold
- Fold change from hIL-2 (TF1 + IL-2Rβ), pSTAT5 fixed conc. [2]: 1 fold
B10: 1H3-hIgG1-L6-hIL-2 (R38E/D84Q) (protein)
heavy: EVQLVESGGGLVQPGRSLKLSCAVSGFTFSDYAMAWVRQAPKKGLEWVATISYDGSRTYYRDSVKGRFTISRDNAKITLYLQMDSLRSEDTATYYCARHGSGYFDYWGQGVMVTVSS[not shown - about 450 residues with a human IgG1 Fc and changes]
light: B1 light

- Fold change from hIL-2 (NK-92), pSTAT5 fixed conc. [1]: 20 fold
- Fold change from hIL-2 (TF1 + IL-2Rβ), pSTAT5 fixed conc. [2]: 1 fold
B11: 1H3-hIgG1-L6-hIL-2 (R38E/D84P) (protein)
heavy: EVQLVESGGGLVQPGRSLKLSCAVSGFTFSDYAMAWVRQAPKKGLEWVATISYDGSRTYYRDSVKGRFTISRDNAKITLYLQMDSLRSEDTATYYCARHGSGYFDYWGQGVMVTVSS[not shown - about 450 residues with a human IgG1 Fc and changes]
light: B1 light

- Fold change from hIL-2 (NK-92), pSTAT5 fixed conc. [1]: 19 fold
- Fold change from hIL-2 (TF1 + IL-2Rβ), pSTAT5 fixed conc. [2]: 1 fold
B12: 1H3-hIgG1-L6-hIL-2 (R38E/D84L) (protein)
heavy: EVQLVESGGGLVQPGRSLKLSCAVSGFTFSDYAMAWVRQAPKKGLEWVATISYDGSRTYYRDSVKGRFTISRDNAKITLYLQMDSLRSEDTATYYCARHGSGYFDYWGQGVMVTVSS[not shown - about 450 residues with a human IgG1 Fc and changes]
light: B1 light

- Fold change from hIL-2 (NK-92), pSTAT5 fixed conc. [1]: 24 fold
- Fold change from hIL-2 (TF1 + IL-2Rβ), pSTAT5 fixed conc. [2]: 3 fold
B13: 1H3-hIgG1-L6-hIL-2 (D20A/Y45T) (protein)
heavy: EVQLVESGGGLVQPGRSLKLSCAVSGFTFSDYAMAWVRQAPKKGLEWVATISYDGSRTYYRDSVKGRFTISRDNAKITLYLQMDSLRSEDTATYYCARHGSGYFDYWGQGVMVTVSS[not shown - about 450 residues with a human IgG1 Fc and changes]
light: B1 light

- Fold change from hIL-2 (NK-92), pSTAT5 fixed conc. [1]: 28 fold
- Fold change from hIL-2 (TF1 + IL-2Rβ), pSTAT5 fixed conc. [2]: 4 fold
B14: 1H3-hIgG1-L6-hIL-2 (I92D/Y45P) (protein)
heavy: EVQLVESGGGLVQPGRSLKLSCAVSGFTFSDYAMAWVRQAPKKGLEWVATISYDGSRTYYRDSVKGRFTISRDNAKITLYLQMDSLRSEDTATYYCARHGSGYFDYWGQGVMVTVSS[not shown - about 450 residues with a human IgG1 Fc and changes]
light: B1 light

- Fold change from hIL-2 (NK-92), pSTAT5 fixed conc. [1]: 30 fold
- Fold change from hIL-2 (TF1 + IL-2Rβ), pSTAT5 fixed conc. [2]: 5 fold
B15: 1H3-hIgG1-L6-hIL-2 (I92D/F42S) (protein)
heavy: EVQLVESGGGLVQPGRSLKLSCAVSGFTFSDYAMAWVRQAPKKGLEWVATISYDGSRTYYRDSVKGRFTISRDNAKITLYLQMDSLRSEDTATYYCARHGSGYFDYWGQGVMVTVSS[not shown - about 450 residues with a human IgG1 Fc and changes]
light: B1 light

- Fold change from hIL-2 (NK-92), pSTAT5 fixed conc. [1]: 20 fold
- Fold change from hIL-2 (TF1 + IL-2Rβ), pSTAT5 fixed conc. [2]: 2 fold
B16: 1H3-hIgG1-L6-hIL-2 (R38E/D84M) (protein)
heavy: EVQLVESGGGLVQPGRSLKLSCAVSGFTFSDYAMAWVRQAPKKGLEWVATISYDGSRTYYRDSVKGRFTISRDNAKITLYLQMDSLRSEDTATYYCARHGSGYFDYWGQGVMVTVSS[not shown - about 450 residues with a human IgG1 Fc and changes]
light: B1 light

- Fold change from hIL-2 (NK-92), pSTAT5 fixed conc. [1]: 29 fold
- Fold change from hIL-2 (TF1 + IL-2Rβ), pSTAT5 fixed conc. [2]: 4 fold
B17: 1H3-hIgG1-L6-hIL-2 (I92D/F42P) (protein)
heavy: EVQLVESGGGLVQPGRSLKLSCAVSGFTFSDYAMAWVRQAPKKGLEWVATISYDGSRTYYRDSVKGRFTISRDNAKITLYLQMDSLRSEDTATYYCARHGSGYFDYWGQGVMVTVSS[not shown - about 450 residues with a human IgG1 Fc and changes]
light: B1 light

- Fold change from hIL-2 (NK-92), pSTAT5 fixed conc. [1]: 28 fold
- Fold change from hIL-2 (TF1 + IL-2Rβ), pSTAT5 fixed conc. [2]: 4 fold
B18: 1H3-hIgG1-L6-hIL-2 (I92D/Y45T) (protein)
heavy: EVQLVESGGGLVQPGRSLKLSCAVSGFTFSDYAMAWVRQAPKKGLEWVATISYDGSRTYYRDSVKGRFTISRDNAKITLYLQMDSLRSEDTATYYCARHGSGYFDYWGQGVMVTVSS[not shown - about 450 residues with a human IgG1 Fc and changes]
light: B1 light
